Test results published in PubChem BioAssay (NCI).
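Dose response: 5 concentrations. Exposure: 48 h. Format: 96-well plates. Endpoint: linear interpolation; highest concentration if not reached. Abbreviation: GI50, concentration required for 50% inhibition of growth.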 The source holds more than one record for some entries. This list holds those alone. There may be further records. For some of these results: A record mostly stands for its own series of concentrations, which the source does not state; some values may only mark the edge of a range. For some of these results: Results that share an entry repeat one measurement in other runs, samples, wells, individuals or studies. Records carry a tag for their origin. Letters hold for one entry only.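 Definition used: TGI = concentration required for complete inhibition of growth.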

Key:
Assay in all cases: DTP human tumour cell line panel, 48 h
CCRF-CEM leukemia = tested on: CCRF-CEM leukemia
HL-60(TB) leukemia = tested on: HL-60(TB) leukemia
K-562 leukemia = tested on: K-562 leukemia
786-0 renal = tested on: 786-0 renal
A549 NSCLC = tested on: A549 NSCLC
ACHN renal = tested on: ACHN renal
CAKI-1 renal = tested on: CAKI-1 renal
HCT-116 colon = tested on: HCT-116 colon
IGROV1 ovarian = tested on: IGROV1 ovarian
MDA-MB-231 breast = tested on: MDA-MB-231 breast
MDA-MB-435 = tested on: MDA-MB-435
NCI-H460 lung = tested on: NCI-H460 lung
NCI-H522 lung = tested on: NCI-H522 lung
OVCAR-3 ovarian = tested on: OVCAR-3 ovarian
OVCAR-4 ovarian = tested on: OVCAR-4 ovarian
OVCAR-8 ovarian = tested on: OVCAR-8 ovarian
PC-3 prostate = tested on: PC-3 prostate
RPMI-8226 leukemia = tested on: RPMI-8226 leukemia
RXF 393 renal = tested on: RXF 393 renal
SK-MEL-2 melanoma = tested on: SK-MEL-2 melanoma
SK-MEL-5 melanoma = tested on: SK-MEL-5 melanoma
SR leukemia = tested on: SR leukemia
TK-10 renal = tested on: TK-10 renal
U251 CNS = tested on: U251 CNS
UACC-62 melanoma = tested on: UACC-62 melanoma
UO-31 renal = tested on: UO-31 renal
HOP-92 NSCLC = tested on: HOP-92 NSCLC

`CC(C)(Br)C(=O)C(Br)Br` was tested, and the TGI (CCRF-CEM leukemia) was 4.85 µM and > 309 µM, the TGI (HL-60(TB) leukemia) was 5.11 µM and > 309 µM and the TGI (K-562 leukemia) was 13.9 µM and > 309 µM.
For `C/C(=N/N=C(\[O-])c1ccncc1)C(F)(F)F.C/C(=N\N=C(/[O-])c1ccncc1)C(F)(F)F.[Ni+2]`, the GI50 (786-0 renal) was 2.26 nM and > 1 µM, the TGI (786-0 renal) was 5 nM and > 1 µM and the GI50 (A549 NSCLC) was 2.46 nM and > 1 µM. The TGI (A549 NSCLC) was 5 nM and > 1 µM, the GI50 (ACHN renal) was 1.75 nM and > 1 µM and the TGI (ACHN renal) was 5 nM and > 1 µM. For the same compound, the GI50 (CAKI-1 renal) was 2.27 nM and > 1 µM, the TGI (CAKI-1 renal) was 5 nM and > 1 µM and the GI50 (HCT-116 colon) was 3.11 nM and > 1 µM. The TGI (HCT-116 colon) was 5 nM and > 1 µM, the GI50 (IGROV1 ovarian) was 2.98 nM and > 1 µM and the TGI (IGROV1 ovarian) was 5 nM and > 1 µM. For the same compound, the GI50 (MDA-MB-231 breast) was 2.62 nM and > 1 µM, the TGI (MDA-MB-231 breast) was 5 nM and > 1 µM and the GI50 (MDA-MB-435) was 2.39 nM and > 1 µM. For the same compound, the TGI (MDA-MB-435) was 5 nM and > 1 µM, the GI50 (NCI-H460 lung) was 1.08 nM and > 1 µM and the TGI (NCI-H460 lung) was 5 nM and > 1 µM. The GI50 (NCI-H522 lung) was 1.21 nM and > 1 µM, the TGI (NCI-H522 lung) was 5 nM and > 1 µM and the GI50 (OVCAR-3 ovarian) was 2.82 nM and > 1 µM. For the same compound, the TGI (OVCAR-3 ovarian) was 5 nM and > 1 µM, the GI50 (OVCAR-4 ovarian) was 0.421 nM and > 1 µM and the TGI (OVCAR-4 ovarian) was 5 nM and > 1 µM. For the same compound, the GI50 (OVCAR-8 ovarian) was 2.47 nM and > 1 µM, the TGI (OVCAR-8 ovarian) was 5 nM and > 1 µM and the GI50 (PC-3 prostate) was 0.658 nM and > 1 µM. For the same compound, the TGI (PC-3 prostate) was 5 nM and > 1 µM, the GI50 (RPMI-8226 leukemia) was 0.245 nM and > 1 µM and the TGI (RPMI-8226 leukemia) was 2.73 nM and > 1 µM. For the same compound, the GI50 (RXF 393 renal) was 3.4 nM and > 1 µM, the TGI (RXF 393 renal) was 5 nM and > 1 µM and the TGI (SK-MEL-2 melanoma) was 5 nM and > 1 µM. The GI50 (SK-MEL-5 melanoma) was 3.29 nM and > 1 µM, the TGI (SK-MEL-5 melanoma) was 5 nM and > 1 µM and the GI50 (SR leukemia) was 1.38 nM and > 1 µM. For the same compound, the TGI (SR leukemia) was 5 nM and > 1 µM, the GI50 (TK-10 renal) was 3.44 nM and > 1 µM and the TGI (TK-10 renal) was 5 nM and > 1 µM. For the same compound, the TGI (U251 CNS) was 5 nM and > 1 µM, the GI50 (UACC-62 melanoma) was 1.11 nM and > 1 µM and the TGI (UACC-62 melanoma) was 5 nM and > 1 µM. The GI50 (UO-31 renal) was 2.5 nM and > 1 µM and the TGI (UO-31 renal) was 5 nM and > 1 µM.
With `O=[N+]([O-])c1ccc(OC2CC3C4C=CC3C2C4)c([N+](=O)[O-])c1` (centres undefined) the GI50 (HOP-92 NSCLC) was > 100 µM [sample A, 1 test] and 5.34 µM [sample B, mean of 2 tests].
With `Cc1cc(N=Nc2ccccc2C)ccc1N` the TGI (HL-60(TB) leukemia) was > 100 µM [sample A] and 7.34 µM [sample B].
